Data reported in PubChem BioAssay AID624418 (National Center for Advancing Translational Sciences (NCATS), 2012).
Among all 410,000 compounds or so, about 530 (0.13%) were called active. The shares of active, inactive and inconclusive entries below differ from those in the screen. Calls come from the whole dose curve; as a rule, active = well fitted inhibition curve with a large enough effect; inconclusive = small, poorly fitted or top-dose-only effect, or another doubt; inactive = no such curve, though single readings can be large or run the other way. A potency beside an inconclusive call is a rough fit, not a confirmed value.

Assay: qHTS of GLP-1 Receptor Inverse Agonists: Cytotox Screen
Conditions: HEK293 cAMP-luciferase reporter cells, luminescence, 24 h; series mostly up to 38.3 µM
In short: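 1536-well qHTS counterscreen of the MLSMR; 200 cells/uL, 12 h pre-incubation, 23 nL cpd, 24 h at 37 deg C 5% CO2, luciferase detection reagent, 12 min RT, luminescence. Inhibition = undesired.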
Potency is the fitted concentration of half-maximal effect.

| Structure (SMILES) | Potency |
| --- | --- |
| c1coc(CSc2ncnc3c2oc2ccccc23)c1 | inconclusive: 12.6 µM [inhibitor, single point] |
| CCCc1nn2c(=O)cc(COc3ccc(/C=C(\C#N)C(=O)Nc4ccccc4)cc3)nc2s1 | inconclusive: 6.31 µM [inhibitor, partial curve, poor fit] |
| C/C(=N\Nc1ccc([N+](=O)[O-])cc1)c1ccc(N)cc1 | inconclusive: 10 µM [inhibitor, partial curve, poor fit] |
| CC(NCCC1(Cc2ccccc2Cl)CCOC(C)(C)C1)c1cccs1 (configuration not stated) | inconclusive: 3.98 µM [inhibitor, full curve] |
| O=c1c(=O)n(O)c2ccccc2n1O | inactive |
| Cc1ccc(-n2nc3c(=O)n(CC(=O)NCC(C)c4ccccc4)nc(C)c3c2C)cc1 (configuration not stated) | inactive |
| COc1ccc(Cn2ccc3nc(C)c(C(=O)NCc4cccc(OC)c4)cc3c2=O)cc1 | inactive |
| C/C(CC(=O)Nc1ccc(OCc2ccccc2)cc1)=N\NC(=O)C(=O)Nc1ccccc1C | inconclusive: 11.2 µM [inhibitor, partial curve, poor fit] |
| N#Cc1c(C(F)(F)F)cc(C2CC2)[nH]c1=O | inconclusive: 28.2 µM [inhibitor, single point] |
| CN1CCN(c2ccc([N+](=O)[O-])cc2NC(=O)c2ccccc2)CC1 | inconclusive: 28.2 µM [inhibitor, single point] |
| CC(=O)n1cc(N(C(=O)CCl)c2ccccc2)c2ccccc21 | inconclusive: 28.2 µM [inhibitor, single point] |
| Cc1ccc(S(=O)(=O)N/N=C/c2ccc3nccnc3c2)cc1 | inactive |
| Cc1cccc2[nH]c3c(N4CCN(C(=O)c5ccco5)CC4)ncnc3c12 | inconclusive: 1.58 µM [inhibitor, partial curve, poor fit] |
| CNC(=S)N/N=C(\C)c1ccc(Cl)c(Cl)c1 | inconclusive: 28.2 µM [inhibitor, single point] |
| C/C(=N/NC(=O)c1ccc(C)nc1)c1ccc2c(c1)CCCC2 | inconclusive: 6.31 µM [inhibitor, partial curve, poor fit] |
| Cc1ccc(-c2nn3c(C)nnc3s2)cc1NC(=O)c1ccc(-c2cccc(Cl)c2)o1 | inconclusive: 11.2 µM [inhibitor, partial curve, poor fit] |
| COC(=O)CN(c1ccc(C)cc1)S(=O)(=O)c1ccc2c(c1)n(C)c(=O)c(=O)n2C | inactive |
| CC(C)C[C@H]1CNC(=S)N1CC1CCN(CCCCc2ccccc2)CC1 | inactive |
| Cc1ccc(-n2nnc(-c3nc(-c4cccs4)no3)c2N)c(C)c1 | inactive |
| COc1ccc(NC(=O)c2nc(C)c(C3(C)CC(c4cccnc4)=NO3)s2)cc1 (configuration not stated) | inconclusive: 2.51 µM [inhibitor, partial curve, poor fit] |
| c1ccc(CN=C2Nc3ccccc3CS2)nc1 | inconclusive: 28.2 µM [inhibitor, single point] |
| CC(C)c1ccc(/C=C/C(=O)NCCCc2ccccc2)cc1 | inconclusive: 28.2 µM [inhibitor, single point] |
| CC(C)N=C1NN=C(c2ccc(Cl)c(Cl)c2)CS1 | inconclusive: 12.6 µM [inhibitor, single point] |

| Structure (SMILES) | Potency |
| --- | --- |
| Cc1ccc(N/N=C(\Cc2nc3ccccc3[nH]2)c2ccccc2)cc1 | inconclusive: 1 µM [inhibitor, full curve, poor fit] |
| COc1ccc(C2CC2/C(=N/O)c2ccccc2)cc1 (configuration not stated) | inactive |
| Cc1ccc(C(=O)O/N=C(\N)Cc2cccc3ccccc23)cc1 | inconclusive: 28.2 µM [inhibitor, single point] |
| COc1ccc(C)cc1NC(=O)CN1CCN(C/C=C/c2ccccc2)CC1 | inactive |
| O=C(Nc1ccc(F)cc1)c1ccc(-n2cncn2)c([N+](=O)[O-])c1 | inconclusive: 4.47 µM [inhibitor, full curve] |
| CCOc1ccc(-c2nc(=S)[nH][nH]2)cc1 | inconclusive: 10 µM [inhibitor, partial curve, poor fit] |
| CC(C)Cn1c(-c2ccc(Br)cc2)c[nH]c1=S | inconclusive: 10 µM [inhibitor, single point] |
| Cc1ccc(C)c(/C=N/NC(=S)NCCc2ccccc2)c1 | inconclusive: 28.2 µM [inhibitor, single point] |
| COc1ccnc(Oc2ccccc2)c1C(=O)N/C=N/OCc1ccc(F)cc1Cl | inconclusive: 28.2 µM [inhibitor, single point] |
| O=C(c1cc(-c2cccs2)nc2ccccc12)N1CCN(c2ccccc2)CC1 | inconclusive: 3.16 µM [inhibitor, full curve, poor fit] |
| COc1ccc(CNc2cc(C)nc3ccc(OC)cc23)cc1 | inconclusive: 28.2 µM [inhibitor, single point] |
| COc1ccc(/C(C)=N/NC(=S)NCCc2ccccc2)c(O)c1 | inconclusive: 1 µM [inhibitor, full curve, poor fit] |
| Nc1c(C(=O)Nc2ccc(S(=O)(=O)N3CCCC3)cc2)sc2nc3ccc(OC(F)(F)F)cc3cc12 | inconclusive: 12.6 µM [inhibitor, single point] |
| O=C(NCCCO)C(=O)c1c(-c2ccccc2)cc2ccccn12 | inconclusive: 11.2 µM [inhibitor, single point] |
| Cc1cccc(NC(=O)COC(=O)c2cccc3c2C(=O)c2ccccc2C3=O)c1C | inconclusive: 22.4 µM [inhibitor, single point] |
| COc1ccccc1Cn1c(/C=C/c2ccccc2)nc2ccccc21 | inconclusive: 28.2 µM [inhibitor, single point] |
| COc1cccc(-c2nnc(SCC(=O)Nc3cc(C)on3)o2)c1 | inconclusive: 5.62 µM [inhibitor, full curve, poor fit] |
| CCOC(=O)N1CCC(N(CCN(C)C)C(=S)Nc2cc(C)ccc2C)CC1 | inactive |
| CCOc1ccc2[nH]c(C(=O)N/N=C/c3cccc(OC)c3OC)cc2c1 | inconclusive: 14.1 µM [inhibitor, single point] |
| Cc1nnc(NCc2n[nH]c(=O)c3ccccc23)c2ccccc12 | inconclusive: 14.1 µM [inhibitor, single point] |
| CCN1CCN(c2cc(C(C)C)nc3c(-c4ccccc4)c(C)nn23)CC1 | inconclusive: 20 µM [inhibitor, single point] |
| COc1ccc(-c2ccnc(-c3ccc(O)cc3)n2)cc1 | inconclusive: 11.2 µM [inhibitor, single point] |
| CCOc1ccc(/C=N/NC(N)=S)cc1 | inconclusive: 28.2 µM [inhibitor, single point] |

| Structure (SMILES) | Potency |
| --- | --- |
| CN=C1C([N+](=O)[O-])=CC=C2C1=NC1(CCCCC1)N2O | inconclusive: 31.6 µM [inhibitor, partial curve, poor fit] |
| NC(CCc1ccccc1)c1csc(Nc2ccc(C(F)(F)F)cn2)n1 (configuration not stated) | inconclusive: 28.2 µM [inhibitor, single point] |
| O=C(Nc1ccc2nc(SCC(=O)N3CCc4ccccc43)sc2c1)c1ccc(F)cc1 | inactive |
| CCCc1nc(SC)ncc1C(=O)N1CCN(c2ccc(Cl)cc2)CC1 | inactive |
| O=C(Nc1nnc(-c2ccco2)o1)c1cccc(Cl)c1 | inactive |
| COc1ccc(NC(=O)Cn2nnc(-c3ccccc3NC(=O)c3ccco3)n2)cc1 | inconclusive: 17.8 µM [inhibitor, partial curve, poor fit] |
| C=CCNC(=S)NNC(=O)COc1c(Cl)cc(Cl)cc1Cl | inconclusive: 20 µM [inhibitor, single point] |
| Cc1cc(Cc2cc(C)c(O)c(CO)c2)cc(CO)c1O | inconclusive: 2.82 µM [inhibitor, full curve] |
| COc1ccc(OC)c(CNC(=O)c2ccc(-c3nc(CSc4ccccc4)c(C)o3)cc2)c1 | inactive |
| CNC(=O)CSc1nc(-c2ccccc2)c(-c2ccccc2)[nH]1 | inconclusive: 28.2 µM [inhibitor, single point] |
| CCOC(=O)N1CCN(CC(O)COc2ccc(C)cc2C(C)(C)C)CC1 (configuration not stated) | inconclusive: 20 µM [inhibitor, single point] |
| COc1ccc(Br)cc1C(C[N+](=O)[O-])c1c(N)n(C)c(=O)n(C)c1=O (configuration not stated) | active: 10 µM |
| CCN(CC)CCNC(=O)c1c(C)n(-c2ccccc2)c2cc(Br)c(OC)cc12 | inconclusive: 14.1 µM [inhibitor, single point] |
| CCN1CCN(C2=C(NS(=O)(=O)c3ccc(C)cc3)C(=O)c3ccccc3C2=O)CC1 | inconclusive: 11.2 µM [inhibitor, partial curve, poor fit] |
| CC(OC(=O)/C=C/c1ccc2ccccc2n1)C(=O)N(C)c1ccccc1 (configuration not stated) | inactive |
| Cc1onc(-c2ccccc2Cl)c1C(=O)Oc1cccc2cccnc12 | inconclusive: 12.6 µM [inhibitor, single point] |
| O=c1[nH]c(-c2ccccn2)nc2ccccc12 | inconclusive: 3.98 µM [inhibitor, full curve, poor fit] |
| COC(=O)C1=C(c2ccccc2)c2ccccc2S(=O)(=O)N1CC(=O)Nc1ccc(F)c(F)c1 | inactive |
| O=[N+]([O-])c1cc(-c2ccccc2)cc([N+](=O)[O-])c1O | inconclusive: 11.2 µM [inhibitor, partial curve, poor fit] |
| O=C(CCc1c[nH]c2ccccc12)N=Nc1c(O)[nH]c2ccccc12 | inconclusive: 31.6 µM [inhibitor, partial curve, poor fit] |
| Cc1cccc(OCc2nc(-c3ccccn3)n[nH]2)c1 | inconclusive: 12.6 µM [inhibitor, partial curve] |
